{
  "source": "PubChem BioAssay AID504339",
  "about": "(National Center for Advancing Translational Sciences (NCATS), 2011)",
  "note": "The campaign covered roughly 390,000 compounds. About 17,000 (4.4%) were called active. This list was built around the results that the source calls inconclusive (neither active nor inactive); the mix of calls is not that of the screen. The call rests on the fitted dose curve; in most records, active means well fitted inhibition curve with a large enough effect; inconclusive means small, poorly fitted or top-dose-only effect; inactive means no such curve, though single readings can be large or run the other way. A potency beside an inconclusive call is a rough fit, not a confirmed value. On the % scale 0 is the no-effect control and ±100 the full control effect; potency means the concentration at half of the fitted maximal effect; tags describe the fitted curve by direction and shape.",
  "data": [
    {"biological_target": "Lysine-specific demethylase 4A (Homo sapiens) (UniProt O75164)", "sequence (O75164 whole entry, looked up, the tested form may be a part)": "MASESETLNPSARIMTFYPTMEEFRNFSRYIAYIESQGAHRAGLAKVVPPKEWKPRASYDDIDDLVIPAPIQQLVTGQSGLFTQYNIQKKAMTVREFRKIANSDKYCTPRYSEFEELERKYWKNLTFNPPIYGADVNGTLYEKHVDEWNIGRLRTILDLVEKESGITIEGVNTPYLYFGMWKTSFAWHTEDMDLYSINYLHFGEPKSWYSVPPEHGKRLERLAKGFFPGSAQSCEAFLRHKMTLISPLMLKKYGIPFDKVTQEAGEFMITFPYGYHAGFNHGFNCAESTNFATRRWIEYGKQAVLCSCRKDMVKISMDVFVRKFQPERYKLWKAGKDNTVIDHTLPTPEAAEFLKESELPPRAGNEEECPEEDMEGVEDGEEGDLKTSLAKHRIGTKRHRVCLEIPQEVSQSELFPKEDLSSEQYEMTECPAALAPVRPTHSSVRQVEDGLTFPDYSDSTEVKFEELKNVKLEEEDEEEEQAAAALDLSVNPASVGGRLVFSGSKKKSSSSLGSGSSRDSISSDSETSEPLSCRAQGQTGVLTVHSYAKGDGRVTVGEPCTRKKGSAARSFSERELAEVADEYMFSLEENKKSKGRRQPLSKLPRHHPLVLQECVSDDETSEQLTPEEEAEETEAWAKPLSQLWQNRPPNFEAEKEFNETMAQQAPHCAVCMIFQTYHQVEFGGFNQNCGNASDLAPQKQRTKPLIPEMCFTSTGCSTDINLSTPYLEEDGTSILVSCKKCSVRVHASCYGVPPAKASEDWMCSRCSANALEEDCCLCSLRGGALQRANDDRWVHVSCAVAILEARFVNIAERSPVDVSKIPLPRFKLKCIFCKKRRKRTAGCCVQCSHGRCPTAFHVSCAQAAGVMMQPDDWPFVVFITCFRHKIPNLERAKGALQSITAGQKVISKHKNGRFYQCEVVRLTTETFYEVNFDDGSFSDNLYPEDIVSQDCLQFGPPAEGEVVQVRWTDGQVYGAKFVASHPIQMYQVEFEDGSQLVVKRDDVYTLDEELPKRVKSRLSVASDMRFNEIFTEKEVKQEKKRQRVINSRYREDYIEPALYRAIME", "assay": "qHTS Assay for Inhibitors of JMJD2A-Tudor Domain; further: nearly all actives have a fitted effect of over 50% in size", "settings": "AlphaScreen JMJD2A-Tudor / H3K4me3 peptide binding; activity change, negative = inhibition: at 114 µM (top of the series)", "values": [
      {"smiles": "COC(=O)c1[nH]c2cccc(OC)c2c1NC(=O)CN1CCC(C(N)=O)(N2CCCCC2)CC1", "activity change, negative = inhibition": "inactive: -6.92%"},
      {"smiles": "CCOc1ccccc1NS(=O)(=O)c1ccc2c(c1)oc(=O)n2C", "activity change, negative = inhibition": "inactive: 2.69%"},
      {"smiles": "Cc1ccc2c(CC(=O)OC(C)C(=O)NCc3ccc4c(c3)OCO4)coc2c1", "note": "(stereo unspecified)", "activity change, negative = inhibition": "inactive: -21.4%"},
      {"smiles": "CCCCc1ccc(C2C3=C(CC(C)(C)CC3=O)NC3=C2C(=O)c2ccccc23)cc1", "note": "(stereo unspecified)", "Potency": "inconclusive: 10 µM [inhibitor, full curve]"},
      {"smiles": "O=C(CSc1nnc(COc2ccccc2)o1)Nc1nccs1", "activity change, negative = inhibition": "inactive: -33.8%"},
      {"smiles": "COc1ccccc1/C=C1\\SC(=S)N(CCC(=O)Nc2cccc(O)c2)C1=O", "Potency": "inconclusive: 100 µM [inhibitor, partial curve, poor fit]"},
      {"smiles": "CCc1nccn1CCC(=O)N1CCCC(Nc2ccc(C(C)C)cc2)C1", "note": "(stereo unspecified)", "Potency": "inconclusive: 44.7 µM [inhibitor, partial curve]"},
      {"smiles": "Cc1nc(C/C(=N\\Nc2ccccc2)c2ccc(O)cc2O)cs1", "Potency": "active: 50.1 µM"},
      {"smiles": "Cc1cc2cc(CNS(=O)(=O)c3ccc4ccccc4c3)ccc2n1C", "Potency": "inconclusive: 50.1 µM [inhibitor, partial curve]"},
      {"smiles": "COc1cccc(CNc2ccc3[nH]c(=O)[nH]c3c2)c1OCc1ccccc1", "Potency": "active: 39.8 µM"},
      {"smiles": "O=C(Nc1ccccn1)c1ccc2c(c1)OCO2", "activity change, negative = inhibition": "inactive: -5.48%"},
      {"smiles": "O=C(Nc1ccc2nc(-c3ccc(Br)o3)[nH]c2c1)c1cccs1", "Potency": "inconclusive: 56.2 µM [inhibitor, partial curve]"},
      {"smiles": "Cc1ccccc1-n1c(SCC(=O)c2c(N)n(C3CC3)c(=O)[nH]c2=O)nnc1N1CCOCC1", "activity change, negative = inhibition": "inactive: -10.8%"},
      {"smiles": "Cc1ccccc1Nc1c(-c2cccnc2)nc2ccc(Cl)cn12", "activity change, negative = inhibition": "inactive: -4.79%"},
      {"smiles": "CCCCCOC(=O)NC1CCS(=O)(=O)C1", "note": "(stereo unspecified)", "activity change, negative = inhibition": "inactive: -1.71%"},
      {"smiles": "COc1ccc(C2=C(Nc3ccc(C)cc3C)c3ccccc3C2=O)cc1", "Potency": "active: 28.2 µM"},
      {"smiles": "COc1ccc(NC(=S)NC(NC(=O)c2ccc(Cl)cc2Cl)C(Cl)(Cl)Cl)c([N+](=O)[O-])c1", "note": "(stereo unspecified)", "Potency": "inconclusive: 22.4 µM [inhibitor, full curve]"},
      {"smiles": "CCOC(=O)c1cnc2c(C)c(Cl)ccc2c1Nc1ccc(N2CCOCC2)cc1", "Potency": "inconclusive: 28.2 µM [inhibitor, partial curve]"},
      {"smiles": "COC(=O)c1cc(Br)cn1S(=O)(=O)c1ccccc1", "activity change, negative = inhibition": "inactive: 22.4%"},
      {"smiles": "Oc1ccc(C=NNC(=S)Nc2ccc(F)cc2)c(O)c1", "Potency": "inconclusive: 63.1 µM [inhibitor, partial curve, poor fit]"},
      {"smiles": "COc1cc(/C=C2/C(=O)NN(c3ccc(Cl)cc3)C2=O)ccc1OC(=O)c1ccco1", "Potency": "inconclusive: 31.6 µM [inhibitor, partial curve]"},
      {"smiles": "CC(C)Sc1nsc2nc(=O)c(/C=C3\\C=Nc4ccccc43)c(N)n12", "Potency": "inconclusive: 31.6 µM [inhibitor, full curve]"},
      {"smiles": "CCOc1ccc(CNCc2c(C(=O)O)c(C)n(Cc3c(F)cccc3Cl)c2C)cc1OC", "Potency": "inconclusive: 50.1 µM [inhibitor, partial curve]"},
      {"smiles": "CCCCN(CCCNC(=O)c1cc(Nc2ccc(OC)c(OC)c2)nc2ccccc12)c1ccccc1", "Potency": "inconclusive: 12.6 µM [inhibitor, full curve]"},
      {"smiles": "CC1CCCN(S(=O)(=O)c2ccc3c(c2)c(=O)nc2ccccn23)C1", "note": "(stereo unspecified)", "Potency": "inactive"},
      {"smiles": "CC(C)(C)c1csc(N/N=C/c2ccc(O)cc2)n1", "Potency": "inconclusive: 79.4 µM [inhibitor, partial curve]"},
      {"smiles": "Cc1ccc(/C([O-])=C(/C(=S)NCc2ccc3c(c2)OCO3)[n+]2ccc(N(C)C)cc2)c(C)c1", "Potency": "inconclusive: 89.1 µM [inhibitor, single point]"},
      {"smiles": "NS(=O)(=O)c1ccc(NC(=O)CCCCC(=O)Nc2ccc(S(N)(=O)=O)cc2)cc1", "Potency": "active: 89.1 µM"},
      {"smiles": "CCOC(=O)c1sc(NC(=O)c2ccoc2C)c(C(N)=O)c1C", "activity change, negative = inhibition": "inactive: -8.84%"},
      {"smiles": "Oc1cccc(C=Nc2cccc3ccccc23)c1O", "Potency": "active: 14.1 µM"},
      {"smiles": "COc1ccccc1NC(=O)C1=C(C)Nc2nc3ccccc3n2C1c1cccc(OC)c1OC", "note": "(stereo unspecified)", "Potency": "inconclusive: 39.8 µM [inhibitor, full curve, poor fit]"},
      {"smiles": "Cc1ccc(Nc2c(-c3ccccn3)nc3cc(C)ccn23)cc1", "Potency": "active: 39.8 µM"},
      {"smiles": "O=C(CCCc1nc2ccccc2s1)NNC(=O)CCN1CCN(Cc2ccccc2)CC1", "activity change, negative = inhibition": "inactive: -10.3%"},
      {"smiles": "O=C(NCC(c1ccco1)N1CCCC1)c1ccccc1Sc1ccc(C(F)(F)F)cc1[N+](=O)[O-]", "note": "(stereo unspecified)", "Potency": "inconclusive: 50.1 µM [inhibitor, partial curve]"},
      {"smiles": "CCC(=O)N1CCN(c2nc(-c3ccccc3)c3c(c2C#N)CCCC3)CC1", "Potency": "inconclusive: 39.8 µM [inhibitor, single point]"},
      {"smiles": "COc1ccc([C@H]2CC(=O)C=C(c3ccc4[nH]ccc4c3)C2)cc1OC", "Potency": "inconclusive: 56.2 µM [inhibitor, partial curve]"},
      {"smiles": "CCN1CCN(C(=O)C2CCN(Cc3cc(Cl)ccc3O)CC2)CC1", "Potency": "active: 10 µM"},
      {"smiles": "CCOc1ccc(/C=C/C2=Cc3c(sc(NC(=O)CSc4n[nH]c(N)n4)c3C#N)C(C)(C)C2)cc1", "Potency": "inconclusive: 35.5 µM [inhibitor, partial curve]"},
      {"smiles": "CCOC(=O)/C(=C/c1ccc(OC(=O)c2ccncc2)cc1)C(C)=O", "activity change, negative = inhibition": "inactive: -10%"},
      {"smiles": "Clc1cccc(N/N=C/c2ccncc2)c1", "Potency": "inconclusive: 50.1 µM [inhibitor, partial curve]"},
      {"smiles": "Cc1ccc(NCN2C(=O)c3ccccc3C2=O)c(C)c1", "Potency": "inconclusive: 3.98 µM [inhibitor, single point]"},
      {"smiles": "O=C(CCCN1C(=O)/C(=C/c2cccs2)SC1=S)Nc1ccccn1", "Potency": "inconclusive: 10 µM [inhibitor, partial curve, poor fit]"},
      {"smiles": "CC(=O)Nc1cccc(-n2cc3c(c2-c2ccccc2Cl)c(=O)n(C)c(=O)n3C)c1", "Potency": "inconclusive: 63.1 µM [inhibitor, partial curve, poor fit]"},
      {"smiles": "COc1ccc(N2CCC(CNC(=S)Nc3c(C)cc(C)cc3C)C2)cc1", "note": "(stereo unspecified)", "Potency": "active: 35.5 µM"},
      {"smiles": "Fc1ccc(CNCc2ccccc2Cl)cc1", "Potency": "active: 20 µM"},
      {"smiles": "COc1ccc(-n2c(C)cc(-c3cn4cccc(C)c4n3)c2C)cc1", "Potency": "inconclusive: 79.4 µM [inhibitor, partial curve]"}
    ]}
  ]
}
